Data: publication PMC11335292
Results are given in words; binding and its absence hold for the method and conditions named. Binding seen in cells or lysates may run through a third protein. Some binding calls cover weakened binding; strength is not graded here. Each block holds one substance with its values, some of them ahead of it.

By UniProt entry, the sequences of proteins in these tests, tags left out. Where a name states a change or a piece, a line headed by the entry shows the natural chain unless it says otherwise. Chains listed by the source or under a name are the forms on record and can include a tag or linker. Residues count along the entry.
UniProt P52480: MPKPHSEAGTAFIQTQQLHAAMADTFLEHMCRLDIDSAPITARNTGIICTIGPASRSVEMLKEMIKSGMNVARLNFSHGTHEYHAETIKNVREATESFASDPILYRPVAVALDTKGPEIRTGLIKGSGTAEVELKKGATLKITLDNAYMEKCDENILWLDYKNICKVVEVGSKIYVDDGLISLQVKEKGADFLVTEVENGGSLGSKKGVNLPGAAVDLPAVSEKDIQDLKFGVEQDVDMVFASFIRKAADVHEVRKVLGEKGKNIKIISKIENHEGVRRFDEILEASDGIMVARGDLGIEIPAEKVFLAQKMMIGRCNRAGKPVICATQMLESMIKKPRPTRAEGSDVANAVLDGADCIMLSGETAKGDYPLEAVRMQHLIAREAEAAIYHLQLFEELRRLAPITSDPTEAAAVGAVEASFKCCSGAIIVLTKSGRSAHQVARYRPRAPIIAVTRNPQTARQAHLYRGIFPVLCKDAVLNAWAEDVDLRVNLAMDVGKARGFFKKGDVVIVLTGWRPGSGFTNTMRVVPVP
PKM2 without C domain: residues 1-389 of P52480
PKM2 without N domain: residues 44-531 of P52480
PKM2 without A domain (P52480, form named): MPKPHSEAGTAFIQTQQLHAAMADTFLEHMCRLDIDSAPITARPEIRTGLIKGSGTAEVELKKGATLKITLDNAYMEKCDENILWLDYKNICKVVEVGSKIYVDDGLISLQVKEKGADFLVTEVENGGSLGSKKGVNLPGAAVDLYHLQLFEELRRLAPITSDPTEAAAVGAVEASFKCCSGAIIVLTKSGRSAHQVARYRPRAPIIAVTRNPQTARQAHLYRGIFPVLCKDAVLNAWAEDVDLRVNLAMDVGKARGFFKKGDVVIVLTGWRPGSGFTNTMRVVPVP
PKM2ΔB (P52480, form named): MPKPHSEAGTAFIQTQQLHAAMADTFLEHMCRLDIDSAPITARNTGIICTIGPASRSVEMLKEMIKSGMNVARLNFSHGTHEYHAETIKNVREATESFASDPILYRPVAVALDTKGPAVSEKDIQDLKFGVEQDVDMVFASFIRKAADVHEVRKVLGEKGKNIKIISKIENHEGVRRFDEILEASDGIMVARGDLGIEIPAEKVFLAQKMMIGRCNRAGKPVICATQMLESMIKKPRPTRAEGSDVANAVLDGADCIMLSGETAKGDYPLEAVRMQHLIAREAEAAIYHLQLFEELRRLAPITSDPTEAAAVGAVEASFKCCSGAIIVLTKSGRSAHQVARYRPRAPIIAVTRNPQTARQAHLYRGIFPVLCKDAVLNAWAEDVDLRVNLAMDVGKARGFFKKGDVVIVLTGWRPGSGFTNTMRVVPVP
UniProt O35129: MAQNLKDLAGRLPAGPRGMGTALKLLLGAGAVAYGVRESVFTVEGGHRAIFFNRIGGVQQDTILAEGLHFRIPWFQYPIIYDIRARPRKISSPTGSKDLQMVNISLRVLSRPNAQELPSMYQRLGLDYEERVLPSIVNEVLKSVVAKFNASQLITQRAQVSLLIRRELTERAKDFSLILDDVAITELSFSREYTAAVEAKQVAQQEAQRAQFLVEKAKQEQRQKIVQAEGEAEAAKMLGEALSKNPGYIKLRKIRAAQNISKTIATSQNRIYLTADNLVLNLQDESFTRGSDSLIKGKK
PHB2 without C-terminal domain (mouse (HL-1 cell cDNA)): residues 1-264 of O35129
PHB2 without N-terminal domain (mouse (HL-1 cell cDNA)): residues 51-299 of O35129
PHB2 without CC domain (mouse (HL-1 cell cDNA)) (O35129, form named): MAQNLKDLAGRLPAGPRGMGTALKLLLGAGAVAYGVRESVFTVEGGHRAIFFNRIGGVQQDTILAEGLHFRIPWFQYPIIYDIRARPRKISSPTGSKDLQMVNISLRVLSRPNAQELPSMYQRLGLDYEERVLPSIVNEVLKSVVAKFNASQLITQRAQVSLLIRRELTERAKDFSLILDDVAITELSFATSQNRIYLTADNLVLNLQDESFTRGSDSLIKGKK
PHB2 without PHB domain (mouse (HL-1 cell cDNA)) (O35129, form named): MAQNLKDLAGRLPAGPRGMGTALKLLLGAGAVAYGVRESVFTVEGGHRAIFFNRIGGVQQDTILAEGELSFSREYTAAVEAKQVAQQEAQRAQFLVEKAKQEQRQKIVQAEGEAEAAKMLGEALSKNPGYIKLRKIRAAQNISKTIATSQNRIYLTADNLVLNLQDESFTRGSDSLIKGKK

Key:
PKM2 without N domain = PKM2 without N domain (UniProt P52480); test: co-IP; HL-1 cells transfected with domain-deletion mutants of PKM2 or of PHB2; IP buffer 150 mM NaCl, 10% glycerol, 20 mM Tris-HCl pH 7.4, 2 mM EDTA, 0.5% Nonidet P-40, 0.5% Triton X-100, 4 °C overnight; western blot
PKM2 without A domain = PKM2 without A domain (UniProt P52480); test: as above
PKM2ΔB = PKM2ΔB (UniProt P52480); test: as above
PKM2 without C domain = PKM2 without C domain (UniProt P52480); test: as above
[1] = biological target: PHB2 without C-terminal domain (mouse (HL-1 cell cDNA)) (UniProt O35129); test: as above
[2] = biological target: PHB2 without CC domain (mouse (HL-1 cell cDNA)) (UniProt O35129); test: as above
[3] = biological target: PHB2 without N-terminal domain (mouse (HL-1 cell cDNA)) (UniProt O35129); test: as above
[4] = biological target: PHB2 without PHB domain (mouse (HL-1 cell cDNA)) (UniProt O35129); test: as above
[5] = biological target: Prohibitin 2 (mouse (endogenous in HL-1)) (UniProt O35129); test: co-IP; endogenous PKM2 and PHB2 in HL-1 cells, physiological condition or LPS; IP buffer 150 mM NaCl, 10% glycerol, 20 mM Tris-HCl pH 7.4, 2 mM EDTA, 0.5% Nonidet P-40, 0.5% Triton X-100, 4 °C overnight; western blot
[6] = biological target: Prohibitin 2 (mouse (endogenous in HL-1)) (UniProt O35129); test: co-IP; HL-1 cells, with or without LPS; dimeric and tetrameric forms of PKM2 with PHB2; how the forms were told apart is not stated

binding (PKM2 without N domain): binds
binding (PKM2 without A domain): binds
binding (PKM2ΔB): no binding
binding (PKM2 without C domain): binds
Substance: Prohibitin 2 (from UniProt O35129 1-299)

binding [1]: binds
binding [2]: binds
binding [3]: binds
binding [4]: no binding
binding [5]: binds
Substance: Pyruvate kinase M2 (from UniProt P52480 1-531) (enzyme)

binding [6]: binds
Substance: dimeric PKM2 (from UniProt P52480 1-531) (enzyme)
